{"source": "PubChem BioAssay AID1768", "about": "(National Center for Advancing Translational Sciences (NCATS), 2009)", "note": "Among all 270,000 compounds or so, about 620 (0.23%) were called active. The inconclusive results got no clear call from the source; some entries with a clear call stand among them for comparison. Calls follow the shape of the dose curve; as a rule, active = well fitted inhibition curve with a large enough effect in the polarisation, with a control signal flat (not every such curve was filed as active); inconclusive = small, poorly fitted or top-dose-only effect, or effect the other way, or a change in a side signal; inactive = no such curve, though single readings can be large or run the other way; the % refers to the polarisation. Potencies of inconclusive entries are doubtful fits and often do not repeat. A note “side channel” means that the fit belongs to a control or component signal, not to the main read-out. Potency is read from the fitted curve at half-maximal effect; tags tell the direction and shape of the fitted curve or compound fluorescence and quenching.", "data": [{"target": "Menin (Homo sapiens) (UniProt O00255)", "sequence (O00255 whole entry, looked up)": "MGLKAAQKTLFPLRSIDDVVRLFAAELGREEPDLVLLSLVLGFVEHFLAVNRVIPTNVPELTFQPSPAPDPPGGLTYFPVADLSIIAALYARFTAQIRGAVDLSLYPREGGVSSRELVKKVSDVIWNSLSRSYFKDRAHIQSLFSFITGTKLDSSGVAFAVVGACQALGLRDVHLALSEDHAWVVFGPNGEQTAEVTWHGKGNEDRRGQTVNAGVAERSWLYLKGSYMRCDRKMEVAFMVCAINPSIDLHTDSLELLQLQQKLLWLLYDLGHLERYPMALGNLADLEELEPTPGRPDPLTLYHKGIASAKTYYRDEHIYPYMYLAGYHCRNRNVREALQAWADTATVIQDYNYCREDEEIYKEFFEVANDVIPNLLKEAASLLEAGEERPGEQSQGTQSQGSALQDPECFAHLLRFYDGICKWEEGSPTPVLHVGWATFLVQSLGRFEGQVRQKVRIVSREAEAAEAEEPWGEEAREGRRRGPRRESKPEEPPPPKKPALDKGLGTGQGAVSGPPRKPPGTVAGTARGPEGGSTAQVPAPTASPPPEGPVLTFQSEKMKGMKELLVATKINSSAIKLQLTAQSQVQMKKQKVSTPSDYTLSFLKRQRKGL", "test": "qHTS Assay for Inhibitors Targeting the Menin-MLL Interaction in MLL Related Leukemias: Competition With Texas Red Labeled MLL-derived Mutant Peptide; as to FP activity change, negative = inhibition: % of control where 0% means no effect", "details": "fluorescence polarization; FP activity change, negative = inhibition: at 61.6 µM (top of the series)", "values": [{"smiles": "Cc1ccc(-c2nnc(SCC(=O)CC(=O)Nc3ccccc3)n2-c2ccccc2)cc1", "Potency": "inconclusive: 39.8 µM [inhibitor, single point]"}, {"smiles": "Nc1n[nH]c(N)c1N=Nc1cccc(F)c1", "Potency": "inconclusive: 39.8 µM [quencher, side channel, single point]"}, {"smiles": "O=C(c1ccccc1)c1ccc(-c2ccc(O)cc2)cc1", "Potency": "inconclusive: 22.4 µM [quencher, side channel, single point]"}, {"smiles": "N#CC1=C(N)OC2=C(C(=O)CCC2)C1C1CC=CCC1", "note": "(stereo not given)", "Potency": "inconclusive: 2.82 µM [inhibitor, full curve, poor fit]"}, {"smiles": "CCOc1cccc2cc(-c3csc(NC(=O)CCC(=O)NCCN4CCCCC4C)n3)c(=O)oc12", "note": "(stereo not given)", "Potency": "inconclusive: 12.6 µM [quencher, side channel, partial curve]"}, {"smiles": "COc1cc(S(=O)(=O)Nc2cccc(C)c2)ccc1N=Cc1c(C)[nH]n(-c2ccccc2)c1=O", "Potency": "inconclusive: 31.6 µM [inhibitor, partial curve, poor fit]"}, {"smiles": "CSCC[C@H](NC(=O)[C@H](CC(C)C)NC(=O)[C@@H]1CCCN1C(=O)[C@H](Cc1ccccc1)NC(=O)[C@H](Cc1ccccc1)NC(=O)[C@@H]1CCC(=O)N1)C(N)=O", "FP activity change, negative = inhibition": "inactive: 20%"}, {"smiles": "C/C(CC(=O)Nc1cccc(Br)c1)=N\\NC(=O)c1ccc(O)cc1O", "Potency": "inconclusive: 20 µM [quencher, side channel, partial curve]"}, {"smiles": "Cc1ccc(Nc2nc(N)nc(-c3oc4ccccc4c3C)n2)cc1", "Potency": "inconclusive: 11.2 µM [quencher, side channel, partial curve]"}, {"smiles": "COC(=O)CCCC(=O)N1CCCC(C(=O)c2ccc(OC)cc2C)C1", "note": "(stereo not given)", "Potency": "inconclusive: 14.1 µM [fluorescent, side channel, partial curve]"}, {"smiles": "Cc1cc(/C=N/Nc2ccc([N+](=O)[O-])cn2)c(C)n1-c1ccc(C(=O)O)cc1", "Potency": "inconclusive: 15.8 µM [quencher, partial curve]"}, {"smiles": "O=S(=O)(c1ccc(NC(=S)N/N=C/c2ccc(N3CCOCC3)cc2)cc1)N1CCOCC1", "Potency": "inconclusive: 12.6 µM [quencher, side channel, partial curve]"}, {"smiles": "Cc1oc(=O)c(NC(=O)c2ccc(Cl)cc2)cc1C(=O)c1ccccc1", "Potency": "inconclusive: 4.47 µM [inhibitor, full curve]"}, {"smiles": "COc1cc(N/N=C/c2ccc(N(C)C)cc2)ncn1", "Potency": "inconclusive: 14.1 µM [quencher, side channel, partial curve]"}, {"smiles": "CCCc1cc(=O)oc2cc(C)c(CN3CCCC3)c(O)c12", "Potency": "inconclusive: 22.4 µM [quencher, side channel, single point]"}, {"smiles": "COc1cccc(N2CCN(C(c3ccccn3)c3nnnn3C(C)(C)C)CC2)c1", "note": "(stereo not given)", "FP activity change, negative = inhibition": "inactive: 15.6%"}, {"smiles": "Oc1ccc(CN2CCC(Cc3ccccc3)CC2)c2cccnc12", "Potency": "inconclusive: 39.8 µM [inhibitor, single point]"}, {"smiles": "C=CCn1c(N)c(C(=O)Nc2ccc(C)c(C)c2)c2nc3ccccc3nc21", "Potency": "inconclusive: 10 µM [quencher, side channel, partial curve]"}, {"smiles": "COc1ccc(N2CCN(c3ccnc4cc(Cl)ccc34)CC2)cc1", "FP activity change, negative = inhibition": "inactive: -12.5%"}, {"smiles": "CCc1c(C)nc(N2CCN(Cc3ccccc3)CC2)[nH]c1=O", "Potency": "inconclusive: 17.8 µM [inhibitor, partial curve]"}, {"smiles": "Cc1nn(CC2CC2)c(=O)n1-c1ccc(Oc2ccccc2)cc1", "Potency": "inconclusive: 39.8 µM [inhibitor, partial curve]"}, {"smiles": "CC(=O)c1ccc(-c2cccc(C3C4C=CCCC4(C)C(=O)N3Cc3ccccc3)c2)cc1", "note": "(stereo not given)", "Potency": "inconclusive: 2.82 µM [fluorescent, side channel, full curve, poor fit]"}, {"smiles": "COc1ccc(C2C(CC(=O)O)=C(O)C(=O)N2c2ccccc2)cc1", "note": "(stereo not given)", "FP activity change, negative = inhibition": "inactive: -11.6%"}, {"smiles": "C=CCOc1cccc(C2C(C(=O)c3ccc(C)o3)=C(O)C(=O)N2c2nccs2)c1", "note": "(stereo not given)", "Potency": "inconclusive: 31.6 µM [quencher, side channel, single point]"}, {"smiles": "COc1ccc(/C=C/C(=O)Nc2cc(C)nn2-c2nc3ccccc3n2Cc2cccc([N+](=O)[O-])c2)cc1", "Potency": "inconclusive: 12.6 µM [quencher, side channel, partial curve]"}, {"smiles": "N=c1c(C(=O)NC2CCCCC2)cc2c(=O)n3ccccc3nc2n1CCc1ccccc1", "Potency": "inconclusive: 31.6 µM [inhibitor, single point]"}, {"smiles": "C#CCOCCOCCOCCNc1nc(N2CCN(C(=O)[C@H]([C@@H](C)CC)n3cc([C@@H](N)Cc4ccc(O)cc4)nn3)CC2)nc(N2CCN(C(=O)[C@H]([C@@H](C)CC)n3cc([C@@H](N)CC(C)C)nn3)CC2)n1", "Potency": "inconclusive: 1.58 µM [fluorescent, side channel, full curve]"}, {"smiles": "Cn1cc(Cl)c(C(=O)NNC(=S)Nc2cccc(Cl)c2)n1", "Potency": "inconclusive: 39.8 µM [quencher, side channel, partial curve]"}, {"smiles": "O=[N+]([O-])c1cc(C(F)(F)F)ccc1NCCc1c[nH]c2ccc(O)cc12", "Potency": "inconclusive: 15.8 µM [quencher, side channel, partial curve]"}, {"smiles": "C(=N\\Nc1nc2ccccc2[nH]1)/c1ccc2c(c1)OCO2", "Potency": "inconclusive: 22.4 µM [quencher, side channel, single point]"}, {"smiles": "CCN(CC)c1ccc(CNc2nc3ccccc3n2CCN2CCOCC2)cc1", "Potency": "inconclusive: 39.8 µM [inhibitor, single point]"}, {"smiles": "CCOC(=O)NCCc1c(C)nc2c(c(C)nn2C(C)(C)C)c1C", "Potency": "inconclusive: 20 µM [fluorescent, side channel, partial curve]"}, {"smiles": "Cn1cccc1-c1nc2ccc([N+](=O)[O-])cc2[nH]1", "Potency": "inconclusive: 39.8 µM [quencher, side channel, single point]"}, {"smiles": "CC(C)(C)c1ccc(NC(=O)CSc2nnc(-c3n[nH]c4ccccc34)o2)cc1", "Potency": "inconclusive: 35.5 µM [inhibitor, single point]"}, {"smiles": "COC(=O)c1sc(N2C(=O)C(O)=C(C(=O)c3ccc(C)o3)C2c2ccc(F)cc2)nc1C", "note": "(stereo not given)", "Potency": "inconclusive: 31.6 µM [quencher, side channel, single point]"}]}]}
